From ChEMBL document CHEMBL4888484, “Replenishing the malaria drug discovery pipeline: Screening and hit evaluation of the MMV Hit Generation Library 1 (HGL1) against asexual blood stage Plasmodium falciparum ,using a nano luciferase reporter read-out” (2022) come the findings set out here.

As a reminder, the % Inhibition is the change of the read-out against control, counted positive when it falls.

About 540 (0.36%) of roughly 150,000 compounds showed an effect of 50% or more. The list shows a part of the results.

This experiment has as its system Plasmodium falciparum. The experiment is described as follows: Primary screen in NF54 nanoGlo assay, in single point, at 2uM, 72h; a lower Z score goes with more inhibition. In kind it is functional, Erythrocyte. As to conditions: timepoint 72 hour.
In the case of `FC(F)(F)CCCCNc1ncccn1`, the “% Inhibition” value is on record as -1% and the Z score stood at 0.25.
Take `COc1ccc(Cc2nc([C@H](O)c3ccccc3)n(CC(C)(C)O)n2)cc1`: the “% Inhibition” value was determined as 10% and the Z score is reported as -1.98.
For `CCN(CC)C(=O)C1CCCN(C2CCC(=O)N(Cc3cc4c(cc3Cl)OCO4)CC2)C1` (centres undefined), the “% Inhibition” value is reported as -4% and the Z score was 0.71.
For `O=C(COc1ccc(Cl)cc1Cl)N[C@H](CCC(=O)OCc1ccccc1)C(=O)OCc1ccccc1` the same measures were -7% and 0.87.
In the same order, the values of `COc1ccc(Nc2nc(N3CCOCC3)nc(N3CCCc4ccccc43)n2)cc1` are -3% and 0.53.
For `CCCc1cccc(C(C)C)c1NC(=O)N1CCC[C@H]1C(=O)N(CC)CC` the same measures were -13% and 1.82.
For `CNC(=O)c1cccc(-c2noc(C3CN(Cc4ccc(Br)cc4)C3)n2)c1`, the “% Inhibition” value is -3% and the Z score stood at 0.33.
In the same order, the values of `CCOc1cc(CNC(=O)c2sc(N3CCCC3=O)nc2C(C)C)cc(OCC)c1OCC` are -11% and 0.99.
In the same order, the values of `COc1ccc(CNC(=O)c2ccc(C)c(-n3c(C)nc4cccnc43)c2)c(OC)c1` are -14% and 2.22.
In the same order, the values of `Cc1ncnc(N2CCC(c3nnc(CN4CCC(O)CC4)n3C)CC2)c1C` are 0% and -0.03.
Consider `Cn1nccc1C(=O)N1CCC[C@H]1c1cccc(F)c1`, for which the “% Inhibition” value was -14% and the Z score worked out at 2.69.
Turning to `CC(C)(C)n1cc(C(=O)O[C@@H]2CCC[C@H]2n2cccn2)cn1`, the “% Inhibition” value is on record as -13% and the Z score amounted to 1.99.
For `CCN(CCn1cccn1)C1CCN(Cc2ccco2)CC1` the same measures were -2% and 0.27.
For `Cc1ccc(C)c(OCc2cc(C(=O)N[C@@H](C)Cc3cccc(C)n3)no2)c1` the same measures were -16% and 2.06.
In the same order, the values of `O=C(CC1CCOCC1)Nc1nnc(C2CCOCC2)s1` are 3% and -0.31.
`O=C1CCc2cc(C(=O)N3CCN(c4cnccn4)CC3)ccc2N1`: the “% Inhibition” value is reported as 0% and the Z score was -0.06.
For `CCCN1c2ccccc2NC2C1C(C(C)=O)C(=O)N2c1ccccn1` (centres undefined) the same measures were 6% and -0.76.
In the same order, the values of `CN(C(=O)c1ccc(-c2ccc3c(c2)OCCO3)s1)C1CCCCC1` are -14% and 2.04.
In the same order, the values of `Cc1ccc(NC(=O)CCC(=O)N(c2ccccc2)c2ccccc2)cc1Cl` are 9% and -1.38.
Consider `CC(C)C(=O)N1CCC[C@H](S(=O)(=O)N2CCc3ccccc32)C1`, for which the “% Inhibition” value is given as -4% and the Z score came out at 0.44.
Turning to `CN(C[C@H]1CCOC1)C(=O)Nc1cc(F)cc(F)c1`, the “% Inhibition” value was -17% and the Z score is 2.2.
On to `CCc1nnc2n1C[C@@H](NCc1cn(C)nc1-c1ccncc1)CC2`, for which the “% Inhibition” value is given as -2% and the Z score worked out at 0.17.
As to `O=S(=O)(c1cccc2nsnc12)N(Cc1cccc(OC[C@H]2CCOC2)c1)C1CC1`, the “% Inhibition” value was -14% and the Z score was 1.84.
For `COc1nc(NS(=O)(=O)c2ccc(Cl)c(F)c2Cl)n[nH]1` the same measures were -13% and 1.34.
For `CCC(C)C(NC(=O)OC(C)(C)C)c1nnc(S(=O)(=O)Cc2cccc(F)c2)o1` (centres undefined) the same measures were -4% and 0.37.
As for `Cc1nc(NC(=O)Cc2noc3ccccc23)sc1-c1ccccn1`, the “% Inhibition” value is recorded as -30% and the Z score is on record as 5.94.
In the same order, the values of `C[C@@H](c1cnn(C)c1)N(C)C(=O)c1occ2c1CCC2` are -6% and 1.
For `C=CCO[C@H]1CCN(C(=O)c2cccc3cc[nH]c23)C1` the same measures were -7% and 0.92.
In the same order, the values of `COC(=O)CO[C@@H]1CO[C@H]2[C@@H]1OC[C@@H]2NS(=O)(=O)c1ccc2ccccc2c1` are -13% and 1.62.
Turning to `Cn1cc(C#N)cc1C(=O)N[C@H]1CCOC[C@@H]1OCc1cscn1`, the “% Inhibition” value was -5% and the Z score turned out to be 0.94.
In the same order, the values of `CCOc1cc2cc(c1)C(=O)N(C)CC(=O)N[C@@H]1CN(C(=O)CN3CCOC3=O)CC[C@@H]1OCc1cccc(c1)O2` are -17% and 2.17.
In the same order, the values of `Cc1cccc(N2CCN(C(=O)[C@@H]3Cc4ccccc4C(=O)O3)CC2)c1C` are -6% and 0.64.
As for `CCc1nc(O)c(C(=O)N2CCCC[C@H]2c2cncn2CC)cc1C`, the “% Inhibition” value turned out to be 9% and the Z score was -1.22.
For `Cc1nn(Cc2ccon2)c(=O)c2ccccc12` the same measures were -4% and 0.62.
For `NS(=O)(=O)c1ccc(CCNC(=O)c2ccc(N3CCOc4ccccc43)s2)cc1` the same measures were 1% and -0.13.
For `O=C(O)C[C@H]1CCCN(S(=O)(=O)CCc2ccccc2Br)C1` the same measures were -2% and 0.29.
On to `O=S1(=O)C[C@H](N2CCN(c3ccccn3)CC2)[C@@H](S(=O)(=O)c2ccccc2)C1`, for which the “% Inhibition” value is -6% and the Z score was found to be 0.79.
`Cc1ncsc1CCN(C)Cc1ccccn1`: the “% Inhibition” value is on record as -19% and the Z score is recorded as 2.48.
In the same order, the values of `C[C@H](NC(=O)c1cc2n(n1)CCCC2)c1ccccc1` are -30% and 3.47.
On to `Cc1cccnc1NC(=O)N[C@H]1CCC(=O)NC1`, for which the “% Inhibition” value is -12% and the Z score is reported as 1.09.
For `COc1ccc(CNC(=O)N2CCc3[nH]c(-c4ccccc4)nc3C2)cc1` the same measures were -14% and 2.04.
In the same order, the values of `C[C@@H]1CN(C(=O)c2nn(C)cc2Cl)CC[C@]1(C)O` are -4% and 0.64.
